According to paper PMC6643034:
No constants are given. Whether binding was seen depends on the method and setting. For part of these data: Sequences can lack the tags named with a protein.

Columns and labels:
Experiment in all cases: BLI; cross-binding screen on OctetRed; evasin held on a nickel-coated biosensor through its C-terminal His tag; each human chemokine at 300 nM; both purified
[1] = molecular target: P1078_IXORI (Ixodes ricinus)
[2] = molecular target: P1086_IXORI (Ixodes ricinus)
[3] = molecular target: P1090_IXORI (Ixodes ricinus)
[4] = molecular target: P942_IXORI (Ixodes ricinus)
[5] = molecular target: T1, P1172_IXORI (Ixodes ricinus) (UniProt V5I2G9)
T1 sequence: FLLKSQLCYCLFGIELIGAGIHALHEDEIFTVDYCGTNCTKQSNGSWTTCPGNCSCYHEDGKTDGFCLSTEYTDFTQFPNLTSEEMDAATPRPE

[6] = molecular target: T2, P1142_AMBCA (Amblyomma cajennense)
T2 sequence: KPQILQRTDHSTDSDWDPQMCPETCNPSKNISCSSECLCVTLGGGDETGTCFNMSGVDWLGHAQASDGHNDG

[7] = molecular target: P1124_IXORI (Ixodes ricinus)
[8] = molecular target: P1080_IXORI (Ixodes ricinus)
[9] = molecular target: P1100_IXORI (Ixodes ricinus)
[10] = molecular target: T3, EVA3_RHISA (Rhipicephalus sanguineus) (UniProt P0C8E8)
T3 sequence: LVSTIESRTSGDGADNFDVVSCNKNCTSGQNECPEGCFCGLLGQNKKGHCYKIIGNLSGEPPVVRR

[11] = molecular target: T4, P1126_AMBCA (Amblyomma cajennense)
T4 sequence: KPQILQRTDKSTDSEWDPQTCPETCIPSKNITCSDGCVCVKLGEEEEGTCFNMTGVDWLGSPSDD

Measured: binding

B1: CCL18 (ligand, UniProt P55774 21-89)
chain: AQVGTNKELCCLVYTSWQIPQKFIVDYSETSPQCPKPGVILLTKRGRQICADPNKKWVQKYISDLKLNA
no binding (tested: 300 nM): all assays above

B2: CXCL14 (ligand, UniProt O95715 35-111)
chain: SKCKCSRKGPKIRYSDVKKLEMKPKYPHCEEKMVIITTKSVSRYRGQEHCLHPKLQSTKRFIKWYNAWNEKRRVYEE
not listed: [9]
no binding (tested: 300 nM): all other assays above

B3: CXCL9 (ligand, UniProt Q07325 23-125)
chain: TPVVRKGRCSCISTNQGTIHLQSLKDLKQFAPSPSCEKIEIIATLKNGVQTCLNPDSADVKELIKKWEKQVSQKKKQKNGKKHQKKKVLKVRKSQRSRQKKTT
no binding (tested: 300 nM): [1] | [3] | [4] | [5] | [6] | [10]

B4: CCL16 (ligand, UniProt O15467 24-120)
chain: QPKVPEWVNTPSTCCLKYYEKVLPRRLVVGYRKALNCHLPAIIFVTKRNREVCTNPNDDWVQEYIKDPNLPLLPTRNLSTVKIITAKNGQPQLLNSQ
not listed: [6] | [11]
no binding (tested: 300 nM): all other assays above

B5: CCL27 (ligand, UniProt Q9Y4X3 25-112)
chain: FLLPPSTACCTQLYRKPLSDKLLRKVIQVELQEADGDCHLQAFVLHLAQRSICIHPQNPSLSQWFEHQERKLHGTLPKLNFGMLRKMG
no binding (tested: 300 nM): all assays above

B6: XCL1 (ligand, UniProt P47992 22-114)
chain: VGSEVSDKRTCVSLTTQRLPVSRIKTYTITEGSLRAVIFITKRGLKVCADPQATWVRDVVRSMDRKSNTRNNMIQTKPTGTQQSTNTAVTLTG
not listed: [2]
no binding (tested: 300 nM): all other assays above

B7: CCL22 (ligand, UniProt O00626 25-93)
chain: GPYGANMEDSVCCRDYVRYRLPLRVVKHFYWTSDSCPRPGVVLLTFRDKEICADPRVPWVKMILNKLSQ
no binding (tested: 300 nM): all assays above

B8: CCL1 (ligand, UniProt P22362 24-96)
chain: KSMQVPFSRCCFSFAEQEIPLRAILCYRNTSSICSNEGLIFKLKRGKEACALDTVGWVQRHRKMLRHCPSKRK
no binding (tested: 300 nM): all assays above

B9: CCL24 (ligand, UniProt O00175 27-119)
chain: VVIPSPCCMFFVSKRIPENRVVSYQLSSRSTCLKAGVIFTTKKGQQFCGDPKQEWVQRYMKNLDAKQKKASPRARAVAVKGPVQRYPGNQTTC
no binding (tested: 300 nM): all assays above
